# Source: PubChem BioAssay AID623901 (Broad Institute, 2012)
# The campaign covered roughly 340,000 compounds. About 470 (0.14%) were called active. This list was built around the results that the source calls inconclusive (neither active nor inactive); the mix of calls is not that of the screen.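 How the source made its calls: active means mean activation of 30% or more, with every replicate also reaching 30%; inconclusive means mean activation of 30% or more but some replicate falls short; inactive means the rest.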
# Experiment: miR-122 suppressors via Renilla sensor increase, primary screen, cell-based, Huh7 psiCHECK-miR122, Renilla luciferase, single point (AID 623901);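 further: 0% = median of neutral control wells and 100% = median of positive control wells; higher luciferase signal means stronger suppression of miR-122 activity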
# Settings: 48 h, at 12.5 µM, stronger effect = higher value
row,Compound,activation
1,Cc1ccc(N2C(=O)CC(=O)NC2=O)cc1,inconclusive: 51.2%
2,c1ccc(-c2cc(-c3ccccc3)[n+](-c3ccccc3)c(-c3ccccc3)c2)cc1,active: 59.2%
3,O=C(c1ccco1)c1cn(Cc2ccccc2Cl)c2ccccc12,inconclusive: 36%
4,CCOc1ccccc1NC(=O)N1CCC2(CC1)OCCO2,inactive: -115%
5,O=c1[nH]c(=S)[nH]c(O)c1N=Nc1ccc2c(c1)OCCO2,inconclusive: 30.1%
6,CN1CCN(c2ccc([N+](=O)[O-])c3no[n+]([O-])c23)CC1,active: 35.1%
